Experimental data: US20180282386A1 (REGENTS OF THE UNIVERSITY OF MINNESOTA, published 2018)

Target: T1, CD133 on Caco-2 cells (human, UniProt O43490 20-865)
T1 construct: whole, on cells; also called prominin-1
T1 sequence (looked up): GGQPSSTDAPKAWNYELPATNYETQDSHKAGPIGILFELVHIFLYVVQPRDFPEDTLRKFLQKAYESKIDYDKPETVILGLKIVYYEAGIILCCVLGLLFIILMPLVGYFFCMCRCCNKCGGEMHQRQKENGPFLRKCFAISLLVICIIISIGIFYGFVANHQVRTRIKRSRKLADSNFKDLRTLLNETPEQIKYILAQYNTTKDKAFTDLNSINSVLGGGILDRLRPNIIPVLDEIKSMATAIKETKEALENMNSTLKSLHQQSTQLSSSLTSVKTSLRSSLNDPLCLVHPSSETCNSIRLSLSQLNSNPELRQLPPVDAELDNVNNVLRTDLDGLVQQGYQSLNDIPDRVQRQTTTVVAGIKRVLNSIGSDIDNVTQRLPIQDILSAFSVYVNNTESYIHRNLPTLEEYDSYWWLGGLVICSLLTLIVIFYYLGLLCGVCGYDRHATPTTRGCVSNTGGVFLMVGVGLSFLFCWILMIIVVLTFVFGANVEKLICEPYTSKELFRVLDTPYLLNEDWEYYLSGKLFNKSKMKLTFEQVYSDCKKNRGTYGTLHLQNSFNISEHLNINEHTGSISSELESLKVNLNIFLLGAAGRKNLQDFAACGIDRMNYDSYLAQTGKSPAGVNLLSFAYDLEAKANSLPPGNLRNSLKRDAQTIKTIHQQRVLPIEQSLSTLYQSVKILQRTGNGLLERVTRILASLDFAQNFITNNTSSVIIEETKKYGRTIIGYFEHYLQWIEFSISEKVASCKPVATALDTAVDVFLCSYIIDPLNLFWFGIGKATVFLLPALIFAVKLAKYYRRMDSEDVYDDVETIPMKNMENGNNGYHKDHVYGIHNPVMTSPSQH
Test: flow cytometry, FITC-labeled 1615133 TriKE (1-500 nM) on Caco-2 cells

B1: 1615133 TriKE (other)
chain: MEVQLVESGGGVVRPGGSLRLSCAASGFTFDDYGMSWVRQAPGKGLEWVSGINWNGGSTGYADSVKGRFTISRDNAKNSLYLQMNSLRAEDTAVYYCARGRSLLFDYWGQGTLVTVSRGGGGSGGGGSGGGGSSELTQDPAVSVALGQTVRITCQGDSLRSYYASWYQQKPGQAPVLVIYGKNNRPSGIPDRFSGSSSGNTASLTITGAQAEDEADYYCNSRDSSGNHVVFGGGTKLTVLPSGQAGAAASESLFVSNHAY[letters of about 120 residues omitted]EASGGPEDIVLSQSPAIMSASPGEKVTISCSASSSVSYMYWYQQKPGSSPKPWIYRTSNLASGVPARFSGSGSGTSYSLTISSMEAEDAATYYCQQYHSYPPTFGAGTKLELKSSGGGGSGGGGGGSSRSSLEVKLVESGPELKKPGETVKISCKASGYTFTDYSMHWVNQAPGKGLKWMGWINTETGEPSYADDFKGRFAFSLETSASTAYLQINNLKNEDTATYFCATDYGDYFDYWGQGTTLTVSS
modifications: FITC label (site not stated)
notes: Single-chain fusion
binding result: binds
